What all share (assay): split reporter; BiFC: cYFP and nYFP fusion constructs (20 μg each) co-transfected into Arabidopsis mesophyll protoplasts (PEG-calcium), 16–18 h in the dark at room temperature, confocal laser scanning microscopy; signal restricted to the nucleus
The target in assay [1] is T1, ARF5Δ722-cYFP (Arabidopsis) (UniProt P93024).
T1 sequence: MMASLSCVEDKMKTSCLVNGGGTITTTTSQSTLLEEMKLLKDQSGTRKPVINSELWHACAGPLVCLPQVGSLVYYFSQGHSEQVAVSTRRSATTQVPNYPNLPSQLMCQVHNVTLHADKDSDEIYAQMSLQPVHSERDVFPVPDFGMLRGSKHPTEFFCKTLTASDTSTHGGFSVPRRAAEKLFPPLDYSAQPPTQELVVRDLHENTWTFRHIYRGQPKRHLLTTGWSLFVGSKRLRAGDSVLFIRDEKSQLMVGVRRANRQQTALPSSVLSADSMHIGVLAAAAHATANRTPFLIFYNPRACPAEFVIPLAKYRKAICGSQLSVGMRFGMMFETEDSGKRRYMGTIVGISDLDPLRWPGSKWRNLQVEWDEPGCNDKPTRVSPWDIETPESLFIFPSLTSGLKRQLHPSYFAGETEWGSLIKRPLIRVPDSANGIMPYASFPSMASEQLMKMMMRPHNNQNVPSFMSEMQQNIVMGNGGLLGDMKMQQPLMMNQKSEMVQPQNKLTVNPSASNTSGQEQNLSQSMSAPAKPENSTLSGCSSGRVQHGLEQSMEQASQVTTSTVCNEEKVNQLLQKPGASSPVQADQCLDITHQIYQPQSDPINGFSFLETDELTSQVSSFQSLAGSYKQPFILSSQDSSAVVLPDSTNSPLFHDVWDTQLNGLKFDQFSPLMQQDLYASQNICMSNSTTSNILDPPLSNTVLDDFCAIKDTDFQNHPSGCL

Amino acid sequences for entries named in this document (tags omitted).
UniProt Q9SUP6: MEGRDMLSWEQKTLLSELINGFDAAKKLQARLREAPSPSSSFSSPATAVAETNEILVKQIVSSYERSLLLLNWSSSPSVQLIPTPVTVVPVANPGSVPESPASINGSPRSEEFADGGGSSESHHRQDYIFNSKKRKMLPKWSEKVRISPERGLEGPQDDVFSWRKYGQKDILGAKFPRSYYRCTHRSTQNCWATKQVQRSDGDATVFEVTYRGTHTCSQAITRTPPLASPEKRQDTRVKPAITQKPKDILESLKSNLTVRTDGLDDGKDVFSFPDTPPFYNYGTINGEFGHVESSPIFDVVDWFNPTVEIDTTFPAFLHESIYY
UniProt Q9C5T4: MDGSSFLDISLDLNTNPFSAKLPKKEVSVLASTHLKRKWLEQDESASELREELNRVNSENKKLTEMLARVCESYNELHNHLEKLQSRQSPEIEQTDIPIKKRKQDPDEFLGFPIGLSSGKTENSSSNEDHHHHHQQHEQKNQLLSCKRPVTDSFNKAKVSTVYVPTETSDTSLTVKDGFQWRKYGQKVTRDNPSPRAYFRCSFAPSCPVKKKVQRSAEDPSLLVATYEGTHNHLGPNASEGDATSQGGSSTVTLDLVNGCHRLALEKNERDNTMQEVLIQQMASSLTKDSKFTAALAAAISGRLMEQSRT
UniProt Q9SK33: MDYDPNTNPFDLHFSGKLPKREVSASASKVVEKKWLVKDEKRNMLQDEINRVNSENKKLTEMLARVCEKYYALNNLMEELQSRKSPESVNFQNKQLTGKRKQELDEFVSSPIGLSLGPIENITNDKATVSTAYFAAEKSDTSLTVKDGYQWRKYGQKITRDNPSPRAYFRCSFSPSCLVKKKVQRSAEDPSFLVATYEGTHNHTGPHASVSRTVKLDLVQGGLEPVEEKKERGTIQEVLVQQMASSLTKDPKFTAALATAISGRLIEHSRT

The target of the next assay is T2, ARF5 (Arabidopsis) (UniProt P93024).
T2 sequence: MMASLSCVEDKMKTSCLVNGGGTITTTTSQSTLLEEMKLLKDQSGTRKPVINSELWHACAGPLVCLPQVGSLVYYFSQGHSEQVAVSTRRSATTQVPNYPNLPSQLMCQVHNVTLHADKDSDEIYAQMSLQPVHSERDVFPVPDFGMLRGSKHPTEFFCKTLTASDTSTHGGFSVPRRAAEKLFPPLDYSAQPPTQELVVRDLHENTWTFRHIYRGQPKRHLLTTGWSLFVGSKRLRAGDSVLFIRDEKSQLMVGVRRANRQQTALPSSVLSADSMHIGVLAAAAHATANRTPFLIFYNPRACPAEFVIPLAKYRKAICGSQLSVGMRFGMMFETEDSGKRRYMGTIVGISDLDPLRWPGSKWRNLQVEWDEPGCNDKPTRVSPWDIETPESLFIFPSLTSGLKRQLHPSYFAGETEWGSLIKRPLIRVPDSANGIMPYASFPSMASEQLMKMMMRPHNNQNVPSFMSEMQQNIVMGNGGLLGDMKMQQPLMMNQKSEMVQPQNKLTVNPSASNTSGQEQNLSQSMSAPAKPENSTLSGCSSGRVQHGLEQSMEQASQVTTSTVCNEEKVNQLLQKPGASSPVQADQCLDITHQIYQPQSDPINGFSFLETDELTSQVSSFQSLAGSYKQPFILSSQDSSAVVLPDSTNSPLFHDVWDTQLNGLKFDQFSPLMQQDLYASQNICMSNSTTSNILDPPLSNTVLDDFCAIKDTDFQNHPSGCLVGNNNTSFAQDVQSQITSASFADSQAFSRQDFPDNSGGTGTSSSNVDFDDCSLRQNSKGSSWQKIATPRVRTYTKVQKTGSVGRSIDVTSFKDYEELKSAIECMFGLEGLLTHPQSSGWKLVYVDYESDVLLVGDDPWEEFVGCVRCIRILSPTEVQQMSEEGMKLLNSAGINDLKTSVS

The target in another assay is T3, WRKY40 (Arabidopsis) (UniProt Q9SAH7).
T3 sequence: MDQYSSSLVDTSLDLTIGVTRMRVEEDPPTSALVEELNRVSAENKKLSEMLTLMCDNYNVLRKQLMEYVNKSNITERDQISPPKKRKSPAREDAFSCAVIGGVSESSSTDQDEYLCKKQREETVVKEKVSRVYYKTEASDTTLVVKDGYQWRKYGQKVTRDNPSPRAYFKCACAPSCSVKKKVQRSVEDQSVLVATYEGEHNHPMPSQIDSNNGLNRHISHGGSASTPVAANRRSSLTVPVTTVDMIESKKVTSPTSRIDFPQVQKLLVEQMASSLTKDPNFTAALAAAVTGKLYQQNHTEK

The target of a further assay is T4, ARF3-cYFP (Arabidopsis) (UniProt O23661).
T4 sequence: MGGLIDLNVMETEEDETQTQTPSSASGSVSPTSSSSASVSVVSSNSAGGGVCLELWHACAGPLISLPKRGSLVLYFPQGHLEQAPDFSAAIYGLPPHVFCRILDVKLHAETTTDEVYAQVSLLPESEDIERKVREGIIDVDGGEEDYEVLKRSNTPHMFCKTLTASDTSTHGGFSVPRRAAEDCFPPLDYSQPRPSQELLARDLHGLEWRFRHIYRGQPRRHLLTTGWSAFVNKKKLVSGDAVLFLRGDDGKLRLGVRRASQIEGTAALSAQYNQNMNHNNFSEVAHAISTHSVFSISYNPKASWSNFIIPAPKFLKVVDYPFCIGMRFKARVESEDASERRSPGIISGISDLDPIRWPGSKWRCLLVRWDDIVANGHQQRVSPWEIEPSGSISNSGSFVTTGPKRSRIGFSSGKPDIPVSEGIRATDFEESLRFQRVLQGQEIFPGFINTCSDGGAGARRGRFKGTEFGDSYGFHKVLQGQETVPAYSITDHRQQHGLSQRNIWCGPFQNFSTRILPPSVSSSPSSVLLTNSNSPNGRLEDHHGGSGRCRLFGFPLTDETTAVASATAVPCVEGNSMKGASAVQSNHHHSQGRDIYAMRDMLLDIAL

The target in assay [2] is WRKY53-cYFP (Arabidopsis) (UniProt Q9SUP6).

Results are given in words; binding and its absence hold for the method and conditions named. Binding seen in cells or lysates may run through a third protein. Some entries that bind do so weakly or less than the wild type. For part of these data: Tags and fused reporters may be left off the sequences shown.

Take WRKY18-nYFP (from UniProt Q9C5T4 1-310): the binding result is given as “no binding” in assay [1], “binds” with ARF5 (Arabidopsis), “binds” in the assay with WRKY40 (Arabidopsis) and “no binding” in the assay with ARF3-cYFP (Arabidopsis).
With WRKY60-nYFP (from UniProt Q9SK33 1-271), the binding entry is reported as “no binding” in assay [1]; “binds” in the assay with ARF5 (Arabidopsis); “binds” with WRKY40 (Arabidopsis); “no binding” with ARF3-cYFP (Arabidopsis); “no binding” in assay [2].
